# This is one part of the list. Repeats are few or missing, and single values can be far off.
# Experiments:
# Assay in all cases: cell count relative to DMSO control; melanoma cells; higher = more viable cells
# Settings in all cases: library dose: low library concentration; 72 h
# [1] = test system: WM115
# [2] = test system: WM1716
# [3] = test system: WM1745
# [4] = test system: WM3526
# [5] = test system: WM3619
# [6] = test system: WM451Lu
# 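Note: cell number obtained by counting DAPI-stained nuclei in high-throughput microscope images with image analysis software, screen run in 1,536-well plates.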
structure (smiles),measurement,setting,value
"C=CCNC1=C2C[C@@H](C)C[C@H](OC)[C@H](O)[C@@H](C)/C=C(\C)[C@H](OC(N)=O)[C@@H](OC)/C=C\C=C(/C)C(=O)NC(=CC1=O)C2=O [Tanespimycin] + Cc1cc([N+](=O)[O-])ccc1NS(=O)(=O)c1cc(Cl)ccc1Cl [FH535] (first compound 0.002 µM, partner dose 1 µM)",cell count,[1],75.4%
same,cell count,[2],89.7%
same,cell count,[3],71.8%
same,cell count,[4],102%
same,cell count,[5],101%
same,cell count,[6],78.9%
"CNC(=O)c1cc(Oc2ccc(NC(=O)Nc3ccc(Cl)c(C(F)(F)F)c3)cc2)ccn1 [sorafenib] + OCc1c[nH]c2ccccc12 [Indole-3-carbinol] (first compound 0.4 µM, partner dose 0.8 µM)",cell count,[1],104%
same,cell count,[2],86.4%
same,cell count,[3],97.8%
same,cell count,[4],109%
same,cell count,[5],85.8%
same,cell count,[6],125%
"CS(=O)(=O)CCNCc1ccc(-c2ccc3ncnc(Nc4ccc(OCc5cccc(F)c5)c(Cl)c4)c3c2)o1 [lapatinib] + COc1ccc(COc2ccc(Cc3cnc(N)nc3N)cc2OC)cc1 [GW2580] (first compound 0.8 µM, partner dose 1 µM)",cell count,[1],99.9%
same,cell count,[2],113%
same,cell count,[3],87.7%
same,cell count,[4],80.7%
same,cell count,[5],114%
same,cell count,[6],99.9%
"CS(=O)(=O)CCNCc1ccc(-c2ccc3ncnc(Nc4ccc(OCc5cccc(F)c5)c(Cl)c4)c3c2)o1 [lapatinib] + Cn1c(Nc2ccc(C(F)(F)F)cc2)nc2cc(Oc3ccnc(-c4ncc(C(F)(F)F)[nH]4)c3)ccc21 [CHIR265] (first compound 0.8 µM, partner dose 0.08 µM)",cell count,[1],50.4%
same,cell count,[2],70.8%
same,cell count,[3],55.7%
same,cell count,[4],57%
same,cell count,[5],71.1%
same,cell count,[6],94.1%
"CNC(=O)c1cc(Oc2ccc(NC(=O)Nc3ccc(Cl)c(C(F)(F)F)c3)cc2)ccn1 [sorafenib] + N#Cc1c(O)c2c(-c3ccc(-c4ccccc4O)cc3)csc2[nH]c1=O [A769662] (first compound 0.4 µM, partner dose 2 µM)",cell count,[1],92.6%
same,cell count,[2],80%
same,cell count,[3],87.5%
same,cell count,[4],82.8%
same,cell count,[5],126%
same,cell count,[6],101%
"C[C@@H](Oc1cc(-c2cnn(C3CCNCC3)c2)cnc1N)c1c(Cl)ccc(F)c1Cl [Crizotinib] + O=S(=O)(c1ccccc1)N(CC(F)(F)F)c1ccc(C(O)(C(F)(F)F)C(F)(F)F)cc1 [T0901317] (first compound 0.2 µM, partner dose 1.4 µM)",cell count,[1],91.3%
same,cell count,[2],97%
same,cell count,[3],87.4%
same,cell count,[4],87.7%
same,cell count,[5],89.8%
same,cell count,[6],95.3%
"C[C@@H](Oc1cc(-c2cnn(C3CCNCC3)c2)cnc1N)c1c(Cl)ccc(F)c1Cl [Crizotinib] + O=C(O)c1ccc(-c2c[nH]c3ncc(-c4ccccc4)cc23)cc1C1CCCC1 [GSK650394] (first compound 0.2 µM, partner dose 0.16 µM)",cell count,[1],103%
same,cell count,[2],110%
same,cell count,[3],94.7%
same,cell count,[4],91.4%
same,cell count,[5],109%
same,cell count,[6],105%
"CS(=O)(=O)CCNCc1ccc(-c2ccc3ncnc(Nc4ccc(OCc5cccc(F)c5)c(Cl)c4)c3c2)o1 [lapatinib] + C=CCNC1=C2C[C@@H](C)C[C@H](OC)[C@H](O)[C@@H](C)/C=C(\C)[C@H](OC(N)=O)[C@@H](OC)/C=C\C=C(/C)C(=O)NC(=CC1=O)C2=O [Tanespimycin] (first compound 0.8 µM, partner dose 0.002 µM)",cell count,[1],117%
same,cell count,[2],7.48%
same,cell count,[3],95.6%
same,cell count,[4],96.2%
same,cell count,[5],131%
same,cell count,[6],123%
"C[C@@H](Oc1cc(-c2cnn(C3CCNCC3)c2)cnc1N)c1c(Cl)ccc(F)c1Cl [Crizotinib] + Cc1ccc(NC(=O)c2cccc(N(C)C)c2)cc1NC(=O)c1ccc(O)cc1 [ZM336372] (first compound 0.2 µM, partner dose 2 µM)",cell count,[1],81%
same,cell count,[2],91.1%
same,cell count,[3],82.7%
same,cell count,[4],101%
same,cell count,[5],104%
same,cell count,[6],96.6%
"CN1CCN(c2ccc3nc(-c4c(N)c5c(F)cccc5[nH]c4=O)[nH]c3c2)CC1 [Dovitinib] + Cc1cc([N+](=O)[O-])ccc1NS(=O)(=O)c1cc(Cl)ccc1Cl [FH535] (first compound 0.1 µM, partner dose 1 µM)",cell count,[1],79.4%
same,cell count,[2],115%
same,cell count,[3],86%
same,cell count,[4],83.1%
same,cell count,[5],126%
same,cell count,[6],99.2%
"CN1CCN(c2ccc3nc(-c4c(N)c5c(F)cccc5[nH]c4=O)[nH]c3c2)CC1 [Dovitinib] + CCN(CC)CCCCNc1ncc2cc(-c3cc(OC)cc(OC)c3)c(NC(=O)NC(C)(C)C)nc2n1 [PD173074] (first compound 0.1 µM, partner dose 0.1 µM)",cell count,[1],108%
same,cell count,[2],121%
same,cell count,[3],93.6%
same,cell count,[4],91.1%
same,cell count,[5],120%
same,cell count,[6],98.1%
"C=CCNC1=C2C[C@@H](C)C[C@H](OC)[C@H](O)[C@@H](C)/C=C(\C)[C@H](OC(N)=O)[C@@H](OC)/C=C\C=C(/C)C(=O)NC(=CC1=O)C2=O [Tanespimycin] + Oc1cc(-c2nc(-c3ccccc3)[nH]c2-c2ccncc2)ccc1Cl [L779450] (first compound 0.002 µM, partner dose 0.2 µM)",cell count,[1],81.2%
same,cell count,[2],112%
same,cell count,[3],77.2%
same,cell count,[4],85.9%
same,cell count,[5],92.7%
same,cell count,[6],97.1%
